# The list shows a part of the results. Most values come without repeats; read them as rough.
# Tested on: IPC-298
# Assay: cell count relative to DMSO control; melanoma cells; higher = more viable cells
# Conditions: library dose: low library concentration; 72 h
# 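Further: cell number obtained by counting DAPI-stained nuclei in high-throughput microscope images with image analysis software, screen run in 1,536-well plates.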
row,SMILES,cell count [%]
1,"CC[C@]1(O)C[C@H]2CN(CCc3c([nH]c4ccccc34)[C@@](C(=O)OC)(c3cc4c(cc3OC)N(C=O)[C@H]3[C@@](O)(C(=O)OC)[C@H](OC(C)=O)[C@]5(CC)C=CCN6CC[C@]43[C@@H]65)C2)C1 [vincristine] + C=C(c1ccc(C(=O)O)cc1)c1cc2c(cc1C)C(C)(C)CCC2(C)C [Bexarotene] (first compound 0.0001 µM, partner dose 2 µM)",100
2,"N#CC[C@H](C1CCCC1)n1cc(-c2ncnc3[nH]ccc23)cn1 [ruxolitinib] + Clc1ccc(Nc2nnc(Cc3ccncc3)c3ccccc23)cc1 [vatalanib] (first compound 1 µM, partner dose 2 µM)",95.3
3,"N#CC[C@H](C1CCCC1)n1cc(-c2ncnc3[nH]ccc23)cn1 [ruxolitinib] + O=C(/C=C/c1cccnc1)NCCCCC1CCN(C(=O)c2ccccc2)CC1 [FK866] (first compound 1 µM, partner dose 0.01 µM)",37.2
4,"Cc1cc(Nc2cc(N3CCN(C)CC3)nc(Sc3ccc(NC(=O)C4CC4)cc3)n2)n[nH]1 [Tozasertib] + CN(NC(=O)CC(=O)NN(C)C(=S)c1ccccc1)C(=S)c1ccccc1 [STA4783] (first compound 0.006 µM, partner dose 0.006 µM)",96.1
5,"N#CC[C@H](C1CCCC1)n1cc(-c2ncnc3[nH]ccc23)cn1 [ruxolitinib] + CO[C@H]1C[C@@H]2CC[C@@H](C)[C@@](O)(O2)C(=O)C(=O)N2CCCC[C@H]2C(=O)O[C@H]([C@H](C)C[C@@H]2CC[C@@H](OCCO)[C@H](OC)C2)CC(=O)[C@H](C)/C=C(\C)[C@@H](O)[C@@H](OC)C(=O)[C@H](C)C[C@H](C)/C=C/C=C/C=C/1C [everolimus] (first compound 1 µM, partner dose 0.02 µM)",75
6,"Cc1cc(Nc2cc(N3CCN(C)CC3)nc(Sc3ccc(NC(=O)C4CC4)cc3)n2)n[nH]1 [Tozasertib] + Cc1cc(Nc2cc(N3CCN(C)CC3)nc(/C=C/c3ccccc3)n2)n[nH]1 [ENMD2076] (first compound 0.006 µM, partner dose 0.04 µM)",94.2
7,"Cc1cc(Nc2cc(N3CCN(C)CC3)nc(Sc3ccc(NC(=O)C4CC4)cc3)n2)n[nH]1 [Tozasertib] + CC1(C)NC(=O)N(c2ccc([N+](=O)[O-])c(C(F)(F)F)c2)C1=O [nilutamide] (first compound 0.006 µM, partner dose 1 µM)",101
8,"CC[C@]1(O)C[C@H]2CN(CCc3c([nH]c4ccccc34)[C@@](C(=O)OC)(c3cc4c(cc3OC)N(C=O)[C@H]3[C@@](O)(C(=O)OC)[C@H](OC(C)=O)[C@]5(CC)C=CCN6CC[C@]43[C@@H]65)C2)C1 [vincristine] + COc1ccc(Cl)c(Nc2nc3ccccc3nc2NS(=O)(=O)c2cccc(NC(=O)C(C)(C)N)c2)c1 [XL147] (first compound 0.0001 µM, partner dose 0.8 µM)",97.4
9,"N#CC[C@H](C1CCCC1)n1cc(-c2ncnc3[nH]ccc23)cn1 [ruxolitinib] + CCN(CC)CCNC(=O)c1c(C)[nH]c(/C=C2\C(=O)Nc3ccc(F)cc32)c1C [sunitinib] (first compound 1 µM, partner dose 0.4 µM)",104
10,"Cc1cc(Nc2cc(N3CCN(C)CC3)nc(Sc3ccc(NC(=O)C4CC4)cc3)n2)n[nH]1 [Tozasertib] + COc1cc([C@@H]2c3cc4c(cc3[C@@H](O[C@@H]3O[C@@H]5CO[C@@H](C)O[C@H]5[C@H](O)[C@H]3O)[C@H]3COC(=O)[C@H]23)OCO4)cc(OC)c1O [etoposide] (first compound 0.006 µM, partner dose 0.02 µM)",97.2
11,"CC[C@]1(O)C[C@H]2CN(CCc3c([nH]c4ccccc34)[C@@](C(=O)OC)(c3cc4c(cc3OC)N(C=O)[C@H]3[C@@](O)(C(=O)OC)[C@H](OC(C)=O)[C@]5(CC)C=CCN6CC[C@]43[C@@H]65)C2)C1 [vincristine] + Oc1nc(-c2ccc(C(F)(F)F)cc2)nc2c1CSCC2 [XAV939] (first compound 0.0001 µM, partner dose 2 µM)",96.1
12,"CC[C@]1(O)C[C@H]2CN(CCc3c([nH]c4ccccc34)[C@@](C(=O)OC)(c3cc4c(cc3OC)N(C=O)[C@H]3[C@@](O)(C(=O)OC)[C@H](OC(C)=O)[C@]5(CC)C=CCN6CC[C@]43[C@@H]65)C2)C1 [vincristine] + CC(=O)O[C@@]12CO[C@@H]1C[C@H](O)[C@@]1(C)C(=O)[C@H](O)C3=C(C)[C@@H](OC(=O)[C@H](O)[C@@H](NC(=O)OC(C)(C)C)c4ccccc4)C[C@@](O)([C@@H](OC(=O)c4ccccc4)[C@H]21)C3(C)C [Docetaxel] (first compound 0.0001 µM, partner dose 0.0001 µM)",83.8
13,"N#CC[C@H](C1CCCC1)n1cc(-c2ncnc3[nH]ccc23)cn1 [ruxolitinib] + Cn1nnc2c(C(N)=O)ncn2c1=O [temozolomide] (first compound 1 µM, partner dose 2 µM)",104
14,"Cc1cc(Nc2cc(N3CCN(C)CC3)nc(Sc3ccc(NC(=O)C4CC4)cc3)n2)n[nH]1 [Tozasertib] + Nc1nc(F)nc2c1ncn2[C@@H]1O[C@H](CO)[C@@H](O)[C@@H]1O [fludarabine] (first compound 0.006 µM, partner dose 0.2 µM)",91.5
15,"N#CC[C@H](C1CCCC1)n1cc(-c2ncnc3[nH]ccc23)cn1 [ruxolitinib] + NC(=O)c1ccc(N(C(N)=O)c2c(F)cccc2F)nc1-c1ccc(F)cc1F [VX702] (first compound 1 µM, partner dose 0.4 µM)",99.3
